Test results: PubChem BioAssay AID1508623 (National Center for Advancing Translational Sciences (NCATS), 2021)
Hit rate of the full screen: of about 48,000 compounds, about 450 (0.94%) were called active. Not shown: some 19% with an inconclusive outcome. Calls come from the whole dose curve; as a rule, active = well fitted inhibition curve with a large enough effect; inconclusive = small, poorly fitted or top-dose-only effect; inactive = no such curve, though single readings can be large or run the other way. The list shows a part of the results.

assay: Primary qHTS for Identification of Small Molecule Inhibitors of Huntingtin Promoter Activity; details: HEK293 HTT promoter firefly luciferase reporter (activity 0% = vehicle and -100% = no light), 24 h; series mostly up to 57.5 µM; activity change, negative = inhibition: at the top concentration; note: nearly all actives have a fitted effect of over 50% in size
In short: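 Quantitative HTS used concentration series of up to 57.5 uM final on HEK293 luciferase reporter cells, 24 h at 37 degrees C. Readout was Dual-Glo firefly luminescence.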

| Structure (SMILES) | activity change, negative = inhibition |
| --- | --- |
| COc1ccccc1C(=O)NC1(C(F)(F)F)C(=O)Nc2c1c(=O)[nH]c(=O)n2-c1ccccc1 (configuration not stated) | inactive: -6.68% |
| Cn1c(=O)c2c([nH]c(=O)n2Cc2ccc(Cl)cc2Cl)n(C)c1=O | inactive: -2.19% |
| Cc1ccc2c(c1)-c1nc(-c3ccc4c(c3)NC(=O)CO4)cc(-c3ccc(Cl)cc3)c1CO2 | inactive: -11.4% |
| COc1ccc2c(OCc3nnc4ccc(-c5ccccc5)nn34)ccnc2c1 | inactive: -1.48% |
| Cc1ccc2nc(N3CCN(C(=O)C4CC4)CC3)sc2c1 | inactive: 43.7% |
| CC1CCCN(CCCNC(=O)c2cn(C)c3ccc(S(=O)(=O)N(C)C4CCCCC4)cc3c2=O)C1 (configuration not stated) | inactive: -20% [at 11.5 µM] |
| CC1=C(C(=O)N2CCN(c3cccc(C(F)(F)F)c3)CC2)C2(CCCCC2)OC1=O | inactive: -10.1% |
| CCOC(=O)c1ccccc1NC(=O)c1cc2c(=O)oc3ccc(C)cc3c2s1 | inactive: -7.98% |
| COc1ccccc1CNC(=O)CN1C(=O)CSc2ccc(S(=O)(=O)N3CCCCC3)cc21 | inactive: -13.5% |
| CCN(c1ccccc1)c1ncnc2c1cnn2-c1ccc(C)cc1C | inactive: 16% |
| Cc1ccc(NC(=O)Cn2cc3c(n2)CCCCC3)cc1 | inactive: -8.56% |
| O=C(Nc1ccc(Cl)cc1Cl)c1cc(S(=O)(=O)N2CCc3ccccc32)ccc1F | inactive: -18.7% |
| CCOC(=O)c1noc2nc(C)n(CC(=O)Nc3ccccc3F)c(=O)c12 | inactive: -8.75% |
| CCOc1ccc(CNC(=O)CSc2nnc(C)c3c(C)n(-c4ccccc4)nc23)cc1 | inactive: -5.04% |
| CC(C)CN(CCCNC(=O)CN1C(=O)CSc2ccc(S(=O)(=O)N3CCOCC3)cc21)CC(C)C | inactive: -14.1% |
| COc1ccc(S(=O)(=O)n2ccnc2)cc1C(C)(C)C | inactive: -0.0546% |
| COc1ccc(OC)c2sc(N3CCN(C(=O)C4CC4)CC3)nc12 | inactive: 0% |
| CCOc1ccc(NC(=O)CC2C(=O)OCCN2CC)cc1 (configuration not stated) | inactive: -7.28% |
| COc1ccccc1NC(=O)c1cnc(SCC(=O)N2CCCc3ccccc32)n(C)c1=O | inactive: 3.7% |
| COc1ccc(N2CCN(C(=O)c3cc4ccc5cccnc5c4[nH]3)CC2)cc1 | inactive: -3.38% |
| CSc1ccc(-c2nc3ccc(C)cn3c2Nc2ccccc2C)cc1 | inactive: 5.43% |
| Cc1cccc(-c2nnn3c2nc(NCCc2ccc(S(N)(=O)=O)cc2)c2cc(Cl)ccc23)c1 | inactive: -4.88% |
| CS(=O)(=O)N(CC(=O)NCCc1ccccc1)c1cc(C(F)(F)F)ccc1Cl | inactive: -9.67% |
| Cc1cccc(Oc2nc3c(c(=O)n(C)c(=O)n3C)n2C)c1 | inactive: -23.2% [at 11.5 µM] |

| Structure (SMILES) | activity change, negative = inhibition |
| --- | --- |
| O=C(NCC12CC3CC(CC(C3)C1)C2)c1cc2nc(-c3ccccc3)cc(C(F)(F)F)n2n1 | inactive: -5.99% |
| CC(NC(=O)c1ccccc1NC(=O)c1nsc2ccccc12)c1ccccc1 (configuration not stated) | inactive: 12.9% |
| CCCCOc1ccc(C(=O)N2CCN(CCc3ccccn3)CC2)cc1 | inactive: -14.4% |
| COc1ccc(-c2ccc(=O)n(CC(=O)Nc3ccc(C)cc3C)n2)cc1 | inactive: -6.98% |
| COc1ccc(-c2noc(CCC(=O)NCc3ccc(C)cc3)n2)cc1 | inactive: -18.2% |
| O=c1n(Cc2cccc(C(F)(F)F)c2)c2ccccc2c2nc(-c3ccccc3)nn12 | inactive: -9.87% |
| Cc1ccc(-c2ccc(CCC(=O)O)n2-c2cccc(O)c2)cc1 | inactive: 8.87% |
| Cc1ccc(CNC(=O)CCCCCn2c(=O)c3sccc3n(CC(=O)N(C)c3ccccc3)c2=O)cc1 | inactive: -11.6% |
| CCOC(=O)c1cccc(NC(=O)Cn2ncc3c4ccccc4n(Cc4ccccc4)c3c2=O)c1 | inactive: -6% |
| CCc1ccc2oc(C(=O)Nc3cccc(C(F)(F)F)c3)cc(=O)c2c1 | inactive: -0.103% [at 11.5 µM] |
| Cc1ccc(NS(=O)(=O)c2ccc3[nH]c(=O)ccc3c2)cc1N(C)C | inactive: -22.4% |
| Cc1cccc(Cn2c(=O)n(CCc3ccccc3)c(=O)c3c(C)c(C)sc32)c1 | inactive: -5.39% |
| Cc1ccc(NC(=O)c2cc(C)nc3c2c(C)nn3-c2cccc(Cl)c2C)c(C)c1 | inactive: -11.9% |
| CCn1cc(C(=O)NCc2ccccc2OC)c(=O)c2cc(S(=O)(=O)N3CCCCC3)ccc21 | inactive: -3.34% |
| CCOC(=O)[C@@H](N)Cc1ccc(-c2cc(O[C@H](c3ccc(Cl)cc3-n3ccc(C)n3)C(F)(F)F)nc(N)n2)cc1 | inactive: -7.25% |
| COc1ccccc1CN1COc2ccc3c(oc(=O)c4ccccc43)c2C1 | inactive: -0.41% |
| CCn1c(=O)cc(SCC(=O)NCCc2ccc(Cl)cc2)c2ccccc21 | inactive: -17% |
| CCOC(=O)C1CCC(CN(Cc2ccc(Cl)cc2)S(=O)(=O)c2ccc(F)c(C(=O)Nc3cccc(F)c3)c2)CC1 (configuration not stated) | inactive: 8.38% |
| COc1ccccc1Nc1cc(C(=O)NC2CCCC2)c2ccccc2n1 | inactive: -26.2% |
| COc1ccc(/C=C/C(=O)Nc2sc3c(c2C(N)=O)CCCC3)cc1 | inactive: 20.8% |
| COc1cccc2sc(=NC(=O)c3ccc(S(=O)(=O)N4CCCCC4)cc3)n(C)c12 | inactive: -5.36% |
| CCOC(=O)c1cnc(NCc2ccccc2OC)c2ccccc12 | inactive: -24.4% |
| COc1ccc(S(=O)(=O)N2CCCCC2)cc1C(=O)Nc1cccc(C(F)(F)F)c1 | inactive: -12.1% |
